Among the data in the RNAGym collection of RNA variant scans (doi:10.1093/nar/gkz1192) are self-cleavage values, retold here.

The chains are these.
B1: CPEB3 Ribozyme (parent)
chain: UAACAGGGGGCCACAGCAGAAGCGUUCACGUCGCAGCCCCUGUCAGAUUCUGGUGAAUCUGCGAAUUCUGCUGUAUAUCUC

The source gives no read counts; variants with many changes may rest on few reads.

The data set covers variants of B1. Description: self-cleavage, relative activity (ratio to wild type); higher = more cleavage; in vitro, sequencing. The method, boiled down:
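Barcoded CPEB3 ribozyme mutants, produced by rounds of error-prone PCR, self-cleaved while being transcribed with T7 RNA polymerase for 5 hours at 37°C and during a subsequent 15 min DNase I step before EDTA was added. Sequencing of template-switched cDNA on Illumina gave cleaved and total reads, and DNA sequencing assigned barcodes to variants. Each variant's relative activity is its cleaved/total read fraction divided by the unmutated ribozyme's fraction, averaged across three batches. A variant needed a minimum of 5 reads.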
UAACAUGGGGCCACUGCGGAAGCGUACACGUCGCAGCCCCUGUCAGAUUCUGGUGAAUCUGCGAAUUCUGCUGUAUAUCCC: the self-cleavage was determined as 0.06. Consider UAACACGGGGCCACAGCAGAAGCGUUCACGUCGCAGCCCCUGUCAGAUCCUGGUGAAUCUGCGAAUCCUGCUGUAUAUCUC, for which the self-cleavage came to 0.27. Turning to UAACACAGGGCCACAGCAGAAGCGUUCACGGCGCAGCCCCUGUCAGAUACUGGGGAAUCUGCGAAUUCUGCUGUAUUUCUC, the self-cleavage was 0.2.

Take UAACACGGGGCCACAGCAGAAGCGCUCACGUCGCAGCCCCUGUCAGAUUCUGGUGAAUCCGCGAAUUCUGCAGUAUAUCUC: the self-cleavage was determined as 0.16.

As to UAACAAGGGGCCACAGCAGAAGCGUUCACGUCGCAGCCCCUGUCAGACUCAGGUGAUUCUGCGAAUUCUGCUGUAUAUCUC, the self-cleavage was determined as 0.05. Then UAACAAGGGGCCACAGCAGAAGCGUUCACGUCGCAGCCCCCGUCAGAAUCUGGUGAAUCUGCGAAUCCUGCUGUAUGUCUC, with 0.15; and UAACAUGGGGCCACUGCAGAAGCGUACACGUCGCAGCCCCUGUCAGAUUCUGGUGAAUCUGCGGAUCCUGCUGUAUAUCUC, with 0.22. For UAACAAGGGGCCACAGCAGAAGCGUUCACGCCGCAGCCCCUGUCAGAUUCUGGCGAAUCUGCGAAUUCUGCUGUAUAUCUC, the self-cleavage came to 0.33. As for UAACAUGGGGCCACAGCGGAAGGGCUCACGUCGCAGCCCCUGUCAGAUUCUGGCGAAUCUGCGAAUUCUGCUGUAUACCUC, the self-cleavage is 0.06.

As to UAACACGGGGCCACAGCAGAAGCGUUCACGUCGCAGCCCCUGUCAGAUUCCGGUGAAUCUGCGAACUCUGCUGUAUAUCUC, the self-cleavage came out at 0.25. The figure for UAACACGGGGCCCCAGCAGAAGCGUUCACGUCGCAGCCCCUGUCAGAUUCUGGUGUAUCUGCGAAUACUGCUGUAUAUCUC is 0.25. Take UAACAAGGGGCCACAGCAGAAGCGUUCACGUCGCAGCCCCUGCCGGAUUCAGGUGAAUCUGCGAAUUCUGCUGUAUAUCUC: the self-cleavage is 0.18.

Regarding UAACAAGGGGCCACAGCAGAAGCGUUCACGUCGCAGCCCCCGUCAGACUCUGGUGAAACUGCGAACUCUGCUCUAUACCUC, the self-cleavage was 0.04. Take UAACAUGGGGCCACUGCAGAAGCGUUCACGUGGCAGACCCUGUCAGAUUCUGGUGAAUCUGCGAAUCCUGCCGUAUAUCUC: the self-cleavage stood at 0.03. Regarding UAACACGGUGCCACAGCAGAAGCGUUCGCGUCGCAGCCCCUGUCAGAUUCUGGUGAAUCUGCGAAUUCUGCUGUAUUUCUC, the self-cleavage was 0.53. As to UAACACGGGGCCACUGCUGAAGCGUUCACGUCGCAGCCCCUGUCAGUUUCUGGUGAAUCUGCGAACUCUGCUGUAUACCUC, the self-cleavage was determined as 0.04.

Take UAACAAGGGGCCACAGCAGAAGCGUUCACGUCGCAGCCCCUGUCAGAUUCAGGUGAAUCUGCGUAUUCUGCUGUAUAUCUC: the self-cleavage was found to be 0.13. For the variant UAACAUGGGGCCACGGGAGAAGCGUUCACGUCGCAGCCCCUGUCAGAUUCUGGUGAAUCUGCGAGCUCUGCUGUAUAUCUC, the self-cleavage was determined as 0.03. Then UAACACGGGGCCACAGCAGAAGGGUUCACGUAGCAGCCCCAGUCAGAUUCUGGUGAAUCUGCGAACUCUGCUGUAUAUCUC, with 0.18; and UAACACGGGGCCACAGCAGAAGCGCUCACGUCGCAGCCCCUGUCAGACUCUGGUGAAUCUGCGAAUUCUGCUGCAUAUCUC, with 0.07; and UAACACGGGGCCACAGCACAAGCGUUCACGUCGCAGCCCCUGUCGGAUUCUGGUGAGUCUGCGAAUUCUGCUGUAUAUCUC, with 0.41. For UAACACGGGGCCACAGCAGAAGCGUUCACGUCGCAGCCCCUGUCAGAUACUGGUGAAUCUGCGAAUUCUGCUGCAUAACUC, the self-cleavage came to 0.63. Turning to UAACAAGGGGCCACAGCAGAAGCGUUCACGUCGCAGCCCCCGUCAGAUUCUGGUGAAUCUGCGGAUUCUGCUGUAUAUCUC, the self-cleavage stood at 0.41. Turning to UAACAUGGGGCCGCAGCAGAAGCGUUCACGUCGCGGCCCCCGUCAGAUUCUGGUGGAUCCGCGAAUUCUGCUGUAUAUCUC, the self-cleavage is 0.13. In the case of UAACAUGGGGCCGCAGCAGAAGCGUUCACGUCGCAGCCCCUGUCAGAUACAGGUGAAUCUGCGAAUUCUGCUGUAUAUCCC, the self-cleavage amounted to 0.08.

As to UAACAUGGGGCCACGGCAGAAGCGUUCACGUCGCAGCCCCUGUCAGAUUCUGGUGAAUCUGCGAAUUCUGCUGUAAAUCUC, the self-cleavage stood at 0.44. Then UAACACGGGGCCACAGCAGAAACGUACACGUCGCGGCCCCUGUCAGAUUCUGGUGUAUCUGCGAAUUCUGCUGUAUAUCUC, with 0.05; and UAACACGGGGCCACAGCUGAAGCGUUCACGUCGCAGCCCCUGUCUGAUUCUGGUGAAUCUGCGAAUUCUGCUGUAUAUCUC, with 0.31; and UAACACGGGGCCAAGGCAGAAGCGUUCACGUCGCAGCCCCUGUCAGAUUCUGGUGUAUCUGCGAAUUCUGCUGUAUAUCUC, with 0.08. UAACAAGGGGCCACAGCAGAAGCGUUCACGUCGCAGCCCCAGACAGAUUCUGGUGAAACUGCGAAUCCUGCUGAAUAUCUC: the self-cleavage turned out to be 0.21. On to UAACACGGGGCCUCAGCAGAGGCGUUCACGUCGCAGCCCCUGUCAGAUUCUGGUGAAUCUGCGAAUUCUGCUGUAUAUCUC, for which the self-cleavage stood at 0.25.

For the variant UAACAUGGGGCCACGGCAGAAGCGUUCACGUCGCAGCCCCCGUCAGAUUCUGGUAAAUCUGCGAAUUCUCCUGCAUAUCUC, the self-cleavage came out at 0.07.

As to UAACACGGGGCCACAGCAGGAGCGUUCACGUCGCAGCCCCUGUCAGAUUCUGGUGAAUCUGCGAACUCUGCUGUAUAUCUC, the self-cleavage was determined as 0.38. Then UAACACGGGGCCACAGCAGAAGCGUUCUCGUCGCAGCCCCUGUCAGAUUCUGGUGAAUGUGCGGAUUCUGCUGUAUAUCUC, with 0.2.
